# From PubChem BioAssay AID485344 (National Center for Advancing Translational Sciences (NCATS), 2010)
# Hit rate of the full screen: of about 340,000 compounds, about 6,900 (2%) were called active. Cut-off read from the data, not from the text of the source: active = inhibition above about 30%; inactive = below that, where a call was filed. Only a part is listed here, and it is no random draw. The source gives no active or inactive call for entries shown without one.
# Biological target: D(2) dopamine receptor (Homo sapiens) (UniProt P14416)
# Assay: HTS Assay for Allosteric Antagonists of the Human D2 Dopamine Receptor: Primary Screen for Antagonists; note: 0% is about no effect
# Settings: HEK293 TREx D2 cells, calcium flux, dopamine EC80; at 10 µM; stronger effect = higher value
# In short: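 Read-out: kinetic calcium fluorescence (1 cycle/s) in inducible HEK293 T-REx D2 cells after an EC80 dopamine addition that followed 180 s compound preincubation. Loss of the dopamine response indicates antagonism.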
# Chain of UniProt P14416 (P14416 whole entry, looked up): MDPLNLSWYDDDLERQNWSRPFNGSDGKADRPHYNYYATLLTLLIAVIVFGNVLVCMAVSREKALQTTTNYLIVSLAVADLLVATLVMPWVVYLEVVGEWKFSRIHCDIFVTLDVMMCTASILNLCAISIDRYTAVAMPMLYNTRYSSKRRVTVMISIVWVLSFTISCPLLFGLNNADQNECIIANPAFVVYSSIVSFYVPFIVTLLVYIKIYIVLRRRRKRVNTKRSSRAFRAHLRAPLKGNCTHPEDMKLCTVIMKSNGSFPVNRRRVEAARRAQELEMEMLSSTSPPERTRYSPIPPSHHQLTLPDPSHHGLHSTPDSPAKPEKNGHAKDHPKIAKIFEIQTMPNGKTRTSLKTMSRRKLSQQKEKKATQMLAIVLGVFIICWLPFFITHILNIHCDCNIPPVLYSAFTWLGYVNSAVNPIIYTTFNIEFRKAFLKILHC
row,Compound,inhibition
1,CCCn1cc(S(=O)(=O)c2cccc(Cl)c2)c(=O)c2cc(F)c(N3CCOCC3)cc21,5.18%
2,O=S(=O)(Nc1ccc(-c2ccc(N3CCCCC3)nn2)cc1)c1ccc(OC(F)(F)F)cc1,-7.48%
3,C/C(=N\NC(=O)c1ccccc1F)c1ccc(C#N)cc1,active: 36.4%
4,COc1ccc(CNC(=O)c2cc3c(-c4ccc(Cl)cc4)nn(C)c3s2)cc1,-2.75%
5,COCCN1C(=O)c2oc3cc(C)cc(C)c3c(=O)c2C1c1cccc(O)c1 (stereo unspecified),1.52%
6,COc1ccc(S(=O)(=O)N(CCc2ccccc2)CC(=O)NCc2ccccc2)cc1,4.64%
7,Cn1c(=O)n(C)c2cc(NS(=O)(=O)c3ccc(F)cc3)c(NCc3ccccc3)cc21,-6.06%
8,CCOC(=O)c1cccc(NC(=O)Cn2nc3c(cc2=O)CCCC3)c1,15.9%
9,Cc1ccc(N2CC(C(=O)NCCS(=O)(=O)N3CCN(c4ccccc4)CC3)CC2=O)cc1 (stereo unspecified),11.4%
10,FC(F)(F)c1cccc(-n2cc(-c3ccccc3)c3c(N4CCCCC4)ncnc32)c1,19.1%
11,CC1(C)C(=O)NC(=O)N1Cc1ccccc1,active: 44.8%
12,CCOC(=O)C1CCN(c2nc3c(S(=O)(=O)c4ccc(Br)cc4)nnn3c3ccsc23)CC1,1.1%
13,COc1ccc(CCNC(=O)Cn2cc(C(=O)c3ccc(Cl)cc3)c(=O)c3ccc(C)nc32)cc1OC,1.58%
14,O=C(CSc1nc(-c2cccs2)nc2cc(=O)[nH]n12)Nc1ccccc1,-0.353%
15,COc1ccccc1CNC(=O)CN1C(=O)CCc2cc(S(=O)(=O)N3CCCCC3)ccc21,0.409%
16,COc1ccc(C(=O)NCCn2cc(SCc3cccc(F)c3)c3ccccc32)cc1OC,-6.4%
17,O=C(CSC1=NCCN1)Nc1cccc(C(F)(F)F)c1,active: 75.4%
18,CCc1ccc(NC(=O)CC(c2cc(OC)c(OC)c(OC)c2)N2Cc3ccccc3C2=O)cc1 (stereo unspecified),3.54%
19,COc1ccccc1-c1noc(-c2ccc(N3CCOCC3)c([N+](=O)[O-])c2)n1,-4.23%
20,COC(=O)c1ccc(-n2c(C)cc(/C=N/n3cnnc3)c2C)cc1,active: 30.7%
21,CC(C)Cn1c(=O)c2ccccc2n2c(CCC(=O)N3CCN(c4cccc(Cl)c4)CC3)nnc12,-12.7%
22,CC(=O)c1ccc(N2CCN(c3ncnc4c3c(-c3ccccc3)cn4-c3ccc(C)c(Cl)c3)CC2)cc1,1.79%
23,COCCCN(Cc1ccco1)C(=O)c1cc2c(s1)-c1ccccc1OC2,-2.63%
24,CC1CCN(C(=O)c2ccc3c(c2)N(Cc2ccccc2F)C(=O)c2ccccc2S3(=O)=O)CC1,-0.142%

row,Compound,inhibition
1,Cc1c(Cl)cccc1-n1ncc(C(=O)N2CCN(C)CC2)c1C1CCN(C(=O)OC(C)(C)C)CC1,7.22%
2,Cc1nc(-c2cccc(S(=O)(=O)N3CCOCC3)c2)cs1,active: 34.7%
3,COc1ccc(S(=O)(=O)n2nc(C)c(S(=O)(=O)N3CCCCC3)c2C)cc1,-15%
4,C/C(O)=C(/C=Nc1ccccc1)C(=O)Nc1ccccc1,active: 33%
5,COc1ccccc1N1CCN(C(=O)c2cc3c(=O)n(C)c4ccccc4c3s2)CC1,-2.04%
6,COc1ccc(-c2nc(SCC(=O)NC3CCCC3)c(-c3ccc(OC)cc3)[nH]2)cc1,14.4%
7,Cn1cccc1-c1cc(C(=O)N/N=C/c2ccc(Cl)cc2)[nH]n1,active: 35%
8,Cc1ccccc1-c1noc(-c2ccc(N3CCN(c4ccccc4)CC3)c([N+](=O)[O-])c2)n1,-2.87%
9,CC(C)c1ccccc1NC(=O)CNCCOc1ccccc1F,active: 46.1%
10,COCCCNc1nc(N)c([N+](=O)[O-])c(NC2CCCCC2)n1,active: 30.4%
11,CC(=O)OCc1cc(=O)n2nc(C3CCCCC3)sc2n1,-17.4%
12,Cc1ccc(C(=O)NCCc2c[nH]c3ccccc23)c(C)c1,active: 73.8%
13,O=C(COc1ccccc1)Nc1sc2c(c1C(=O)Nc1ccccc1Cl)CCCCC2,1.38%
14,CCN(Cc1nc(-c2cccc(C)c2)no1)S(=O)(=O)c1ccc(C)cc1,24.9%
15,CCNC(=O)COC(=O)CCC(=O)c1cccs1,active: 51.3%
16,Cc1cccc(C)c1NC(=O)CN1C(=O)CCSc2ccc(S(=O)(=O)N3CCCC3)cc21,-1.92%
17,COc1ccc(N(CC(=O)Nc2ccc(C)c(C)c2)S(=O)(=O)c2ccc(C)cc2)cc1OC,-23.5%
18,Cc1ccc(C)c(N2C(=O)N(Cc3c(F)cccc3Cl)c3ccccc3S2(=O)=O)c1,-1.01%
19,COC(=O)c1cc(NC(=O)Nc2ccc3snnc3c2)cc(C(=O)OC)c1,13.4%
20,CCCOc1ccc(/C=C/C(=O)Nc2sc(C)c(C)c2C(=O)OCC)cc1OC,-5.32%
21,CCCOc1ccc(NC(=O)CC2C(=O)N(c3ccc(C)cc3)C(=O)N2C(C)C)cc1 (stereo unspecified),12.1%
22,CCCN1CCN(CCCNC(=O)c2cc3c(Cl)nc4ccccc4c3s2)CC1,-24.2%
23,Cc1nnc(SCc2cc(=O)c3ccccc3[nH]2)s1,-8.3%
24,Cc1nc(S(=O)(=O)N2CCN(c3ccc(Cl)cc3)CC2)cn1C,-6.43%

row,Compound,inhibition
1,CCOc1ccc(S(=O)(=O)NCCc2csc(-c3ccc(Cl)cc3)n2)cc1,-5.62%
2,CCOc1ccc(CCNC(=O)c2ccc(-c3nc(CSc4ccc(C)cc4)c(C)o3)cc2)cc1,-16.6%
3,COc1ccc(NC2=Nc3ccccc3CC2)cc1,active: 46.2%
4,Cc1cc(C)cc(Nc2ncnc3c2nc2n3CCCC2)c1,1.97%
5,COc1ccc(N2CC(NC(=O)COc3ccccc3F)CC2=O)cc1OC (stereo unspecified),1.3%
6,CC(C)CCNC(=O)CN1C(=O)CCn2nc(-c3cn(C)c4ccccc34)cc21,-1.68%
7,COc1ccc(C)c2sc(NC(=O)c3ccc(S(=O)(=O)N4CCCCC4)cc3)nc12,4.76%
8,CCOc1ccc(NC(=O)CSc2oc(-c3ccco3)nc2S(=O)(=O)c2ccc(C)cc2)cc1,11.3%
9,CCn1c2ccccc2c2nnc(N3CCN(c4ccc(F)cc4)CC3)nc21,13.3%
10,COc1ccc(NC(=O)c2ccc(CN3C(=O)CCn4nc(C)cc43)cc2)c(OC)c1,4.94%
11,CCOC(=O)c1c(NC(=O)COc2cccc(C(F)(F)F)c2)sc2c1CCC(C)C2 (stereo unspecified),-4.53%
12,CCOC(=O)c1cc2c(=O)n3ccccc3nc2n(CC2CCCO2)c1=NC(=O)c1ccc(C(C)(C)C)cc1 (stereo unspecified),-8.34%
13,Cc1nc2sc(C(=O)N(C)Cc3ccccc3)c(NC(=O)c3ccccc3)c2c(C)c1Cl,-0.792%
14,CCOc1ccc(CNC(=O)c2ccc(Sc3ccc(Cl)cc3)c(NC(C)=O)c2)cc1,-6.97%
15,COc1ccc(NC(=O)CSc2cn(CC(=O)N3CCCCC3)c3ccccc23)c(OC)c1,11.4%
16,COc1ccc(C(CNC(=O)c2ccc(C)c(S(=O)(=O)Nc3ccccc3OC)c2)N2CCCC2)cc1 (stereo unspecified),active: 48.9%
17,CCCC(=O)Nc1ccc2c(c1)nc(CN1CCN(C(=O)OCC)CC1)n2C(C)C,-9.47%
18,CCC1CN(C(=O)NCc2cccc(OC)c2)c2cc(Cl)ccc2O1 (stereo unspecified),6.03%
19,Cc1ccccc1C(=O)c1cccn1CC(=O)NCc1ccc(Cl)cc1,-6.57%
20,Cc1ccc2c(CN3CCN(Cc4ccccc4Cl)CC3)cc(=O)oc2c1,-11.4%
21,COc1ccc(CCNC(=O)CCCn2c(=O)c3cccn3c3cccnc32)cc1OC,5.24%
22,COc1ccc(C2CC(=O)Nc3c2c(=O)nc2c(C)cccn32)cc1OC (stereo unspecified),-9.62%
23,CCCCC1CCC(C(=O)N2CC(=O)Nc3ccc(F)cc3C2c2ccc(F)cc2)CC1 (stereo unspecified),1.06%
24,COc1ccc(-n2c(SCC(=O)NCc3cccs3)nnc2-c2ccoc2C)cc1,active: 42.5%

row,Compound,inhibition
1,CCN1CCN(CCCNC(=O)c2ccc3nc(Cc4ccc(OC)cc4)oc3c2)CC1,-12.9%
2,O=C(Nc1ccc(C(=O)N2CCN(c3ccc(F)cc3)CC2)cc1)c1nsc2ccccc12,-0.0671%
3,CCOc1cc(CNS(=O)(=O)c2ccc3c(c2)CC(=O)N3C)cc(OCC)c1OCC,7.31%
4,Cc1cc(C)n(C(C)CC(=O)NCc2ccccc2C)n1 (stereo unspecified),3.92%
5,CCCCN(CCCC)c1ncnc2c1cnn2-c1cccc(C)c1,23.9%
6,CC(=O)Nc1ccc(S(=O)(=O)N2CCC(c3ccncc3)CC2)cc1,-9.44%
7,COc1ccc(Br)cc1C(=O)Nc1ccc2oc(-c3cccnc3)nc2c1,-24.3%
8,CCOC(=O)c1c(S(=O)(=O)N2CCCC(C(=O)Nc3ccc(OCC)cc3)C2)c(C)n(C)c1C (stereo unspecified),-3.44%
9,Cc1ccc(S(=O)(=O)c2cn(Cc3cccc(F)c3)c3cc(N4CCCC4)c(F)cc3c2=O)cc1,-9.66%
10,CCOc1ccc(NC(=O)c2cc3sc(Cl)cc3n2CC)cc1,-5.36%
11,CCCOc1ccccc1-c1nc(SCC(=O)c2ccccc2)n[nH]1,-14.4%
12,Cc1ccc(-c2cc(NC(=O)c3ccccc3Cl)on2)cc1,-0.681%
13,Cc1cccc(S(=O)(=O)NCCc2cn3ccccc3n2)c1,active: 32%
14,O=C(CCN1CCN(c2ccc(Cl)cc2)CC1)Nc1ccccc1F,active: 35.9%
15,COCCn1c(C)cc(O)c(C(c2ccccc2)N2CCC(C)CC2)c1=O (stereo unspecified),-3.13%
16,CN(CC(=O)N1CC=C(c2ccccc2)CC1)S(=O)(=O)c1ccc2c(c1)c(=O)n(C)c(=O)n2C,active: 30.8%
17,COc1ccc(N2C(=O)CSC23C(=O)N(C)c2ccccc23)cc1Cl (stereo unspecified),-2.94%
18,CCc1ccccc1Nc1cc(C(=O)NCc2ccc(C)cc2)c2ccccc2n1,-1.23%
19,O=C(c1c2c(nc3ccccc13)C(=O)N(C1CCCCC1)C2)N1CCN(c2ccc(F)cc2)CC1,1.95%
20,COC(=O)c1c(NC(=O)c2cc(=O)c3c(C)cc(C)cc3o2)sc2c1CCCC2,3.95%
21,O=C(CN(CC1CCCO1)C(=O)CNS(=O)(=O)c1ccc(F)cc1)NCc1ccc(F)cc1 (stereo unspecified),active: 36.6%
22,Cc1cccc(NC(=O)CN(c2ccc(C(C)C)cc2)S(=O)(=O)c2c(C)nn(C)c2C)c1C,-6.81%
23,Cc1ccc(-n2ncc3c(N4CCN(c5ccccc5)CC4)ncnc32)cc1C,-1.06%
24,COc1ccc(N(C)C(=O)Cn2cnc3sc(C)c(S(=O)(=O)N4CCN(c5ncccn5)CC4)c3c2=O)cc1,28.3%
